# Source: PubChem BioAssay AID686970 (National Center for Advancing Translational Sciences (NCATS), 2013)
# The whole screen tested about 360,000 compounds, of which about 6,000 (1.7%) were called active. The shares of active, inactive and inconclusive entries below differ from those in the screen. The call rests on the fitted dose curve; in most records, active means well fitted cell-killing curve with a large enough effect; inconclusive means small, poorly fitted or top-dose-only effect, or effect the other way; inactive means flat fitted curve, though single readings scatter. No potency is given beside an inconclusive call; the fits are too rough.
# Assay: qHTS for induction of synthetic lethality in tumor cells producing 2HG: qHTS for the HT-1080-NT fibrosarcoma cell line;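 further: NT is the 2HG producing partner of a matched IDH1 knockdown line; nearly all actives have a fitted effect of over 55% in size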
# Conditions: HT-1080-NT fibrosarcoma viability, CellTiter-Glo ATP luminescence, 48 h; series mostly up to 46.1 µM
# In short: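 A 48-hour cytotoxicity screen used HT-1080-NT cells plated 2 hours before compound delivery. ATP-based CellTiter-Glo luminescence measured viability, normalized to DMSO and no-cell controls.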
# Potency means the concentration at half of the fitted maximal effect; tags describe the fitted curve by direction and shape.
row,Compound,Potency
1,CCc1ccc2oc(C(=O)N3CCN(c4ccccc4OC)CC3)cc(=O)c2c1,"inconclusive [cytotoxic, single point]"
2,O=C(NCCCn1ccnc1)c1ccc(OCC(F)(F)F)cc1,inactive
3,CC(C)C[C@H](NC(=O)c1nc[nH]c1C(=O)N[C@@H](CCCCNC(=O)OC(C)(C)C)C(=O)OC(C)(C)C)C(=O)OCc1ccccc1,"inconclusive [cytotoxic, single point]"
4,N#Cc1ccc(OCC(=O)N2CCN(S(=O)(=O)c3ccc(Cl)s3)CC2)cc1,inactive
5,O=C(c1cc(COc2ccc3ncccc3c2)on1)N1CCC[C@H]1CO,"inconclusive [cytotoxic, single point]"
6,Cc1nc2ccccn2c1-c1csc(Nc2ccc(C(=O)O)cc2)n1,active: 2.06 µM
7,O=[N+]([O-])c1cc(S(=O)(=O)N2CCCCCC2)ccc1F,"inconclusive [cytotoxic, single point]"
8,O=C(NCC1(c2ccccc2)CCCC1)c1ccccc1,inactive
9,O=S1(=O)N[C@@H](Cc2ccccc2)COc2cccc(N3CCN(Cc4ccccc4F)CC3)c21,"inconclusive [cytotoxic, single point]"
10,O=C1c2[nH]nc(-c3ccccc3O)c2C(c2ccccc2)N1Cc1ccco1 (configuration not stated),"inconclusive [cytotoxic, single point]"
11,CC1(c2ccc(Cl)cc2Cl)OCC(Cn2ccnc2)O1 (configuration not stated),"inconclusive [cytotoxic, single point]"
12,Brc1cc(-c2ccccc2)nc(-c2ccccc2)n1,"inconclusive [cytotoxic, single point]"
13,COc1cc2c(cc1OC)C(C)N(C(=O)Nc1ccc(F)cc1)CC2 (configuration not stated),"inconclusive [cytotoxic, single point]"
14,CCCOc1c(OC)cccc1C1CC(=O)Nc2cc3c(cc21)OCO3 (configuration not stated),"inconclusive [cytotoxic, single point]"
15,Cc1cccc(C(C)C)c1NC(=O)COC(=O)c1cccc(S(=O)(=O)N2CCc3ccccc3C2)c1,"inconclusive [cytotoxic, partial curve]"
16,CCCCCCCCCc1nc2sc3c(c2c(=O)n1NC(=O)c1ccc([N+](=O)[O-])cc1)CC(C)(C)OC3,"inconclusive [cytotoxic, single point]"
17,COc1cccc(N2CC(O)=C(c3nc4ccccc4c(=O)[nH]3)C2=N)c1,active: 1.26 µM
18,C#CC[N+](C)(C)CCCCCCCCC,"inconclusive [cytotoxic, single point]"
19,CCOc1ccc(-c2nnn(CC#N)n2)cc1OC,"inconclusive [cytotoxic, single point]"
20,COCc1c(C(=O)Nc2ccc3nc(N4CCOCC4)sc3c2)oc2ccccc12,inactive
21,CC(C)N(Cc1ccccc1)C(=O)CN1C(=O)NC2(CCCCCC2)C1=O,inactive
22,O=C(c1ccco1)N1N=C(c2ccc(Cl)cc2)CC1c1ccco1 (configuration not stated),"inconclusive [cytotoxic, single point]"
23,CCN1C(c2ccccc2)=C(c2ccccc2)S/C1=C\C=C1/SC(=S)N(C)C1=O,"inconclusive [cytotoxic, partial curve, poor fit]"

row,Compound,Potency
1,C/C(=N\NC(=O)Cn1c(C)nc2ccccc21)c1cccs1,"inconclusive [cytotoxic, single point]"
2,CN1CCN(c2ncnc3c2ncn3[C@H]2CN(Cc3ccc(Cl)cc3)C[C@@H](CO)O2)CC1,"inconclusive [cytotoxic, single point]"
3,CCCC(c1nnnn1C(C)(C)CC)N(CCCO)Cc1cc2cc(C)cc(C)c2[nH]c1=O (configuration not stated),"inconclusive [cytotoxic, partial curve]"
4,CCc1nc2ccccc2n(CCOCCn2c(=O)c(CC)nc3ccccc32)c1=O,inactive
5,CC(C)CN=C(NS(=O)(=O)c1ccccc1)C(Cl)(Cl)Cl,active: 6.51 µM
6,CCOC(=O)c1sc(NC(=O)CSc2n[nH]c(-c3ccncc3)n2)c(C#N)c1C,"inconclusive [cytotoxic, single point]"
7,CCn1nc(C(=O)OC(C(=O)c2c[nH]c3ccccc23)c2ccccc2)c2ccccc2c1=O (configuration not stated),"inconclusive [cytotoxic, single point]"
8,COc1ccc(NC(=O)CSc2nc3c(sc4ccccc43)c(=O)n2CCCN2CCCC2)cc1,"inconclusive [cytotoxic, partial curve]"
9,CC1=C(C(=O)OCCC(C)C)C(c2ccc3c(c2)OCO3)NC(=O)N1 (configuration not stated),inactive
10,COc1ccccc1-n1c(N)cc(=O)nc1SCC(=O)Nc1cc(C)on1,inactive
11,Cc1ccc(S(=O)(=O)N(C)C)cc1NC(=O)COC(=O)c1c(-c2ccccc2)noc1C,inactive
12,O=C(Nc1nc(-c2cccs2)cs1)c1ccc([N+](=O)[O-])o1,"inconclusive [cytotoxic, single point]"
13,Cc1ccc2sc(NC(=O)CSc3nc(C)cc(C)c3C#N)nc2c1,"inconclusive [cytotoxic, partial curve]"
14,CC1(c2ccccc2)NC(=O)N(CC(=O)Nc2ccc([N+](=O)[O-])cc2)C1=O (configuration not stated),"inconclusive [cytotoxic, partial curve, poor fit]"
15,c1ccc(CNc2nc(N3CCN(Cc4ccccc4)CC3)nc3ccccc23)cc1,"inconclusive [cytotoxic, single point]"
16,O=C(c1cccc(Br)c1)N1CCN(c2ccccn2)CC1,inactive
17,N=c1c2c(-c3ccccc3)c(-c3ccccc3)n(Cc3ccco3)c2ncn1CCCO,active: 20.6 µM
18,Nc1nonc1-n1nnc(C(=O)N/N=C/c2ccccc2O)c1CN1CCCC1,"inconclusive [cytotoxic, partial curve]"
19,COc1ccc(-c2nn3c(-c4ccccn4)nnc3s2)cc1OC,inactive
20,Cc1cc2nc(-c3ccc(SCC(=O)N4CCOCC4)nc3)[nH]c2cc1C,"inconclusive [cytotoxic, partial curve]"
21,CCOc1ccc(CCN2C(=S)N([C@@H](CC(C)C)CN3CCC[C@@H]3CN3C(=S)NC[C@@H]3CC(C)C)C[C@@H]2Cc2ccc(O)cc2)cc1,active: 23.1 µM
22,O=C(Nc1nnc(C2COc3ccccc3O2)o1)c1ccc(F)cc1 (configuration not stated),"inconclusive [cytotoxic, single point]"
23,Cc1ccc(O)c(C(=O)c2cnc3c(c2)CN(CCC(C)C)C(=O)N3)c1,"inconclusive [cytotoxic, single point]"

row,Compound,Potency
1,COc1ccccc1CNc1ccc2c(c1)CCC2,inactive
2,CCCc1[nH]nc2c1C(c1ccsc1)C(C#N)=C(N)O2 (configuration not stated),"inconclusive [cytotoxic, single point]"
3,CCOC(=O)C1CCCN(c2c(C(=O)c3ccccc3)cnc3ccc(OC)cc23)C1 (configuration not stated),inactive
4,CCOC(=O)c1sc(N(C)C(C)=O)nc1C,inactive
5,Cn1c(-c2ccccc2)n[nH]c1=S,"inconclusive [rising, partial curve]"
6,CN(C)C=NC(=O)c1[nH]c2ccc(Cl)cc2c1-c1ccccc1,"inconclusive [cytotoxic, single point]"
7,Cc1ccc(-c2csc3nc[nH]c(=S)c23)cc1,"inconclusive [cytotoxic, single point]"
8,O=C(N/N=C/c1ccc2c(c1)OCO2)c1cc(-c2ccc(F)cc2)nc2ccccc12,"inconclusive [cytotoxic, single point]"
9,COc1cccc(N2CCN(C(=O)c3ccc4ccccc4c3)CC2)c1,inactive
10,O=C(COc1ccc(Cl)cc1[N+](=O)[O-])NC1CCCCC1,"inconclusive [cytotoxic, single point]"
11,CCC(=O)NC(c1cccs1)c1ccc2cccnc2c1O (configuration not stated),"inconclusive [cytotoxic, full curve, poor fit]"
12,Cc1ccc(C(=O)NCCN2C3=NC[C@H](C)N3C[C@H]2Cc2ccc(O)cc2)cc1Br,inactive
13,C#CCOCCOCCOCCNc1nc(N2CCN(C(=O)CCCCCCCCCCNC(=O)[C@H](CCCCN)n3cc(C[C@@H](C)CC)nn3)CC2)nc(N2CCN(C(=O)CCCCCCCCCCNC(=O)[C@@H]([C@H](C)O)n3cc(C)nn3)CC2)n1,"inconclusive [cytotoxic, single point]"
14,CC1(C(=O)NCc2ccccc2Br)CCN1Cc1ccc(-c2ccccn2)cc1 (configuration not stated),"inconclusive [cytotoxic, single point]"
15,COC(=O)c1ccc2c(c1)C(NC(C)=O)CCc1cc(OC)c(OC)c(OC)c1-2 (configuration not stated),active: 0.0065 µM
16,CCCCC[C@@H](C)N1C[C@H](COCc2ccccc2)Oc2cc(N3CCC[C@H]3C(N)=O)ccc2S1(=O)=O,inactive
17,CCOc1ccc2nc(SC3CC(=O)N(c4ccccc4)C3=O)sc2c1 (configuration not stated),"inconclusive [cytotoxic, single point]"
18,NC(N)=NC(=O)Cc1c(Cl)cccc1Cl,"inconclusive [rising, full curve]"
19,Cc1cccc(NC(=O)c2cccc([N+](=O)[O-])c2O)c1C,"inconclusive [cytotoxic, single point]"
20,Cc1onc(-c2ccccc2)c1C(=O)NNC(=S)NC(=O)c1ccc2c(c1)OCO2,"inconclusive [cytotoxic, single point]"
21,O=C(Nc1ccccc1C(=O)N1CCN(Cc2ccccc2)CC1)c1ccccc1,inactive
